From a collection of fitness landscapes (doi:10.1016/j.celrep.2020.107928)
Whole data set: some 81,000 sequences, median “one-hybrid fitness for binding NBS DNA” near -0.1, cut for the highest 2% near 0.36. The list shows a part of the results.

B1: Caulobacter ParB omega fusion; a variant is named by its letters at X, in order, B8GW30 (parent)
chain: MESVVVGEPGMSEGRRGLGRGLSALLGEVDAAPAQAPGEQLGGSREAPIEILQRNPDQPRRTFREEDLEDLSNSIREKGVLQPILVRPSPDTAGEYQIVAGERAWRAAQRAGLKTVPIMVRELDDLAVLEIGIIENVQRADLNVLEEALSYKVLMEKFERTQENIAQTIGKSXSHVANXMRLLXLPDEVQSYLVSGELTAXHARAIAAAADPVALAKQIIEGGLSVRETEALARKAPNLSAGKSKGGRPPRVKDTDTQALESDLSSVLGLDVSIDHRGSTGTLTITYATLEQLDDLCNRLTRGI

Variants of: B1
Test: one-hybrid fitness for binding NBS DNA (the Noc-binding site; scaled: cognate 1, non-cognate 0); higher = stronger binding
Conditions: with NBS DNA site
In short: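 Fitness is the rescaled log change in variant-to-wild-type read ratio, measured by Illumina sequencing of plasmids before and after bacterial one-hybrid selection. The scale puts cognate at 1 and non-cognate at 0. Selection of Caulobacter ParB libraries, four specificity codons randomised, took place in E. coli USO with a HIS3 reporter, site 19 bp from the promoter, over 48 hours at 37°C on M9-minus-histidine with 0.1 mM IPTG and 5 mM 3-AT.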

Variant	one-hybrid fitness for binding NBS DNA
QREI	≤ 0.2
QAKL	0.229
HKHT	≤ 0.2
TIQY	≤ 0.2
QEYT	≤ 0.2
FCHY	≤ 0.2
FIGS	≤ 0.2
KTKV	≤ 0.2
PTST	≤ 0.2
YQLI	≤ 0.2
RYKC	0.367
RTIR	0.354
GYQR	≤ 0.2
SMVD	≤ 0.2
ETPT	≤ 0.2
FGGR	≤ 0.2
GEPV	≤ 0.2
DEDW	≤ 0.2
CWNS	≤ 0.2
WLPY	≤ 0.2
FHDT	≤ 0.2
KKCR	≤ 0.2
QGKE	≤ 0.2
SLHY	≤ 0.2

Variant	one-hybrid fitness for binding NBS DNA
GCKR	≤ 0.2
GLTE	≤ 0.2
QMAM	≤ 0.2
VARC	≤ 0.2
GSAR	≤ 0.2
ITKH	≤ 0.2
ILYI	≤ 0.2
QIRN	0.226
LDHM	≤ 0.2
HDMF	≤ 0.2
TIFF	≤ 0.2
CQRL	≤ 0.2
AQLS	≤ 0.2
APKK	≤ 0.2
VTKG	≤ 0.2
PSDL	≤ 0.2
QVYL	≤ 0.2
QRNL	0.3
CTTV	≤ 0.2
DLTG	≤ 0.2
PYFL	≤ 0.2
PIWR	≤ 0.2
EVRR	≤ 0.2
QTYH	0.271

Variant	one-hybrid fitness for binding NBS DNA
HSLV	≤ 0.2
LKLE	≤ 0.2
APYL	≤ 0.2
SWYC	≤ 0.2
MSPF	≤ 0.2
QFDW	≤ 0.2
YIGG	≤ 0.2
FHLK	≤ 0.2
AQVR	≤ 0.2
VIIA	≤ 0.2
WMQS	≤ 0.2
YMES	≤ 0.2
SDCG	≤ 0.2
AHDV	≤ 0.2
GSHC	≤ 0.2
AATI	≤ 0.2
IAIL	≤ 0.2
TCVD	≤ 0.2
VYLT	≤ 0.2
SVML	≤ 0.2
LMQK	≤ 0.2
QAPE	≤ 0.2
LVST	≤ 0.2
MKNG	≤ 0.2

Variant	one-hybrid fitness for binding NBS DNA
VLHM	≤ 0.2
CCST	≤ 0.2
QLML	≤ 0.2
FQPT	≤ 0.2
SHPE	≤ 0.2
DCDG	≤ 0.2
MGKV	≤ 0.2
ATMC	≤ 0.2
QESD	≤ 0.2
YIPI	≤ 0.2
PQYM	≤ 0.2
HCPG	≤ 0.2
IFMT	≤ 0.2
QFRA	≤ 0.2
QVCT	0.314
TMFD	≤ 0.2
LCWS	≤ 0.2
KHDR	≤ 0.2
QMCV	≤ 0.2
EYTR	≤ 0.2
KAHT	≤ 0.2
QSAP	≤ 0.2
TPYF	≤ 0.2
VVVC	≤ 0.2

Variant	one-hybrid fitness for binding NBS DNA
SSKW	≤ 0.2
EGHF	≤ 0.2
HMRY	≤ 0.2
QSAD	≤ 0.2
HTPP	≤ 0.2
WLER	≤ 0.2
RLCP	≤ 0.2
PGDG	≤ 0.2
DLPM	≤ 0.2
RDTI	≤ 0.2
KCVS	≤ 0.2
SHNR	≤ 0.2
RYQI	≤ 0.2
LKKR	0.224
PPLN	≤ 0.2
CSLR	≤ 0.2
RKHE	≤ 0.2
VYNT	≤ 0.2
CPFV	≤ 0.2
MVEV	≤ 0.2
GLSY	≤ 0.2
LAQE	≤ 0.2
NCRM	≤ 0.2
TCYM	≤ 0.2

Variant	one-hybrid fitness for binding NBS DNA
EHPE	≤ 0.2
GLNE	≤ 0.2
FLPG	≤ 0.2
NAFC	≤ 0.2
AATR	≤ 0.2
CSFI	≤ 0.2
GQEG	≤ 0.2
RDGV	≤ 0.2
QCQM	≤ 0.2
QLVH	≤ 0.2
FQLC	≤ 0.2
LEPS	≤ 0.2
TPTT	≤ 0.2
WMVS	≤ 0.2
TYNK	≤ 0.2
DAPQ	≤ 0.2
EWNR	≤ 0.2
IILG	≤ 0.2
YSYG	≤ 0.2
ARRY	≤ 0.2
EHVT	≤ 0.2
PYVV	≤ 0.2
LCIT	≤ 0.2
TIPE	≤ 0.2

Variant	one-hybrid fitness for binding NBS DNA
SNVN	≤ 0.2
IGLC	≤ 0.2
YNLR	≤ 0.2
MQDT	≤ 0.2
LESR	≤ 0.2
KVLV	≤ 0.2
RKEG	≤ 0.2
RRTE	≤ 0.2
TVSS	≤ 0.2
QSNA	0.308
TCSW	≤ 0.2
RCSA	0.232
ENKR	≤ 0.2
CHKG	≤ 0.2
LARE	≤ 0.2
GRPG	≤ 0.2
HQDT	≤ 0.2
KKLT	≤ 0.2
RDDW	≤ 0.2
HRRD	≤ 0.2
HWTS	≤ 0.2
MLAS	≤ 0.2
NYLC	≤ 0.2
GESC	≤ 0.2

Variant	one-hybrid fitness for binding NBS DNA
ARFS	≤ 0.2
NYIC	≤ 0.2
QARW	0.252
CHLA	≤ 0.2
DCLF	≤ 0.2
MFRW	≤ 0.2
PEDG	≤ 0.2
SSFG	≤ 0.2
IRAL	≤ 0.2
QSGP	≤ 0.2
LYPF	≤ 0.2
FGVL	≤ 0.2
GHRH	≤ 0.2
QNCE	≤ 0.2
SPGE	≤ 0.2
PNRF	≤ 0.2
PVNR	≤ 0.2
MITS	≤ 0.2
GEQS	≤ 0.2
QLGW	≤ 0.2
PAQF	≤ 0.2
DFND	≤ 0.2
KPTG	≤ 0.2
ILAT	≤ 0.2

Variant	one-hybrid fitness for binding NBS DNA
SLIA	≤ 0.2
HDCS	≤ 0.2
DADV	≤ 0.2
KQST	≤ 0.2
IHRG	≤ 0.2
DEWG	≤ 0.2
YSVY	≤ 0.2
QLPQ	≤ 0.2
MFWL	≤ 0.2
KVPS	≤ 0.2
CMRD	≤ 0.2
DLAT	≤ 0.2
PNMW	≤ 0.2
QRGG	0.367
KFMC	≤ 0.2
CMNV	≤ 0.2
TPEA	≤ 0.2
AKWS	≤ 0.2
WSAQ	≤ 0.2
WAIS	≤ 0.2
QAMC	≤ 0.2
YSDS	≤ 0.2
LHTK	≤ 0.2
YGKL	≤ 0.2

Variant	one-hybrid fitness for binding NBS DNA
ICLR	≤ 0.2
RPDP	≤ 0.2
TATK	≤ 0.2
LPMT	≤ 0.2
SCGT	≤ 0.2
VLFG	≤ 0.2
MELS	≤ 0.2
THLV	≤ 0.2
WAMT	≤ 0.2
KMDT	≤ 0.2
AHSD	≤ 0.2
QCWA	0.205
KSCR	≤ 0.2
WSLV	≤ 0.2
DVND	≤ 0.2
ASHY	≤ 0.2
QANS	0.392
NRGM	≤ 0.2
NTFS	≤ 0.2
YLTI	≤ 0.2
RFCV	≤ 0.2
SYKR	0.378
SNHC	≤ 0.2
LGTE	≤ 0.2

Variant	one-hybrid fitness for binding NBS DNA
MRAF	≤ 0.2
GDVA	≤ 0.2
TGER	≤ 0.2
QCPQ	≤ 0.2
KRVC	≤ 0.2
IFQG	≤ 0.2
VCWG	≤ 0.2
ILHS	≤ 0.2
YKEC	≤ 0.2
MTES	≤ 0.2
RPNA	≤ 0.2
SSGG	≤ 0.2
KWDS	≤ 0.2
KVSC	≤ 0.2
VFPY	≤ 0.2
PFQF	≤ 0.2
KTGG	≤ 0.2
STQL	≤ 0.2
PCSI	≤ 0.2
VHYL	≤ 0.2
YPWS	≤ 0.2
GFQK	≤ 0.2
YYAC	≤ 0.2
ENAC	≤ 0.2

Variant	one-hybrid fitness for binding NBS DNA
SHNY	≤ 0.2
PNMR	≤ 0.2
LYFC	≤ 0.2
KGKC	≤ 0.2
MCVS	≤ 0.2
HCLS	≤ 0.2
AMQD	≤ 0.2
QLNF	≤ 0.2
KSVY	≤ 0.2
TIAA	≤ 0.2
WSKA	≤ 0.2
SLVA	≤ 0.2
MVQP	≤ 0.2
QAHN	≤ 0.2
IRLM	≤ 0.2
TCLM	≤ 0.2
LCES	≤ 0.2
TTAQ	≤ 0.2
SYLM	≤ 0.2
THGM	≤ 0.2
SWWT	≤ 0.2
DYWC	≤ 0.2
QSYN	≤ 0.2
DHKV	≤ 0.2

Variant	one-hybrid fitness for binding NBS DNA
TTPT	≤ 0.2
CHFC	≤ 0.2
GRHR	≤ 0.2
PTEF	≤ 0.2
DASG	≤ 0.2
QMTE	≤ 0.2
YQSL	≤ 0.2
QKFY	≤ 0.2
FIYG	≤ 0.2
ELGC	≤ 0.2
FPMC	≤ 0.2
DLPR	≤ 0.2
GLAC	≤ 0.2
QHIA	≤ 0.2
LCQV	≤ 0.2
CRPF	≤ 0.2
PGTT	≤ 0.2
MIKS	≤ 0.2
